The results in this text go back to the RNAGym collection of RNA variant scans (doi:10.1101/gad.245936.114).

B1: tRNA (parent)
chain: CUCUCGGUAGCCAAGUUGGUUUAAGGCGCAAGACUUUAAUUUAUCACUACGAAAUCUUGAGAUCGGGCGUUCGACUCGCCCCCGGGAGAUUUUUUCCUCGAGCAA

This sample is rich in variants without activity.

In the data set the parent is B1. Kind of data set: nonsense suppression (GFP-seq) (ratio to wild type); higher = more function; SUP4oc tRNA, yeast GFP reporter sort-seq. Summed up: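 Each variant's nonsense suppression (GFPSEQ) is a cell-share-weighted bin median GFP/RFP relative to the unmutated parent tRNA. Yeast with genome-integrated tRNA variants from a ~3% random-mutation library, a galactose-driven GFP ochre reporter and RFP were grown in raffinose/galactose medium with 80 mg/L adenine, then sorted into GFP/RFP bins for Illumina sequencing. Variants needed ≥100 reads and ≥30 cells.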
Regarding CUCUCGGAAGCCAAGUUGGUUUAAGGCGCAAGACUUUAAUUUAUCACUACGAAAUCUUUAGAUCGGGCGUUCGACUCGCCGCCGGGAGAUUUUUUCCUCGAGCAA [U8A G59U C81G], the nonsense suppression was ≤ 0.026.

Turning to CUCUCGGUAGCCAAGUUGGUUUAAGGGGCAAGACUUUAAUUUAUCACUACGAAAUCUUGAGAUCGGGCCUUCGACUCGCCCCCGGGAGAUUUUUUCCUCGAGCAA [C27G G69C], the nonsense suppression was ≤ 0.026.

Turning to CUCUCGGGAGCCAAGUUGGUUUAAGGCGCAAGACUUUAAUUUAUCACUACGAAAUCUUGAGAUGGGGCGCUCGACUCGCCCCCGGGAGAUUUUUUCCUCGAGCAA [U8G C64G U70C], the nonsense suppression was ≤ 0.026.

On to CUCUCGGUAGCCAAGUUUGUUUAAGGCGCAAGACUUUAAUUUAUCACUACGAAAUCGUGAGAUCCGGCGUUCGACUCGCCCCCGGGAGAUUUUUUCCUCGAGCAA [G18U U57G G65C], for which the nonsense suppression is ≤ 0.026.

Take CUCUCGGUAGCCAAGUUGGAUUAAGGCGGAAGAAUUUAAUUUAUCACUACGAAAUCUUGAGAUCGGGCGUUCGACUCGCCCCCGGGAGAUUUUUUCCUCGAGCAA [U20A C29G C34A]: the nonsense suppression is ≤ 0.026.

On to CGCUCGGUAGCCAAGUUGGUUUAAGGCGCAAGACUUUAAUUUAUCACUACGAAAUCUUGAGAUCGGGCAUUCGACUCGCCCCCGGGAGAUUUUUUCCUCGAGCAA [U2G G69A], for which the nonsense suppression is ≤ 0.026.

Take CUCUCGGUAGCGAAGUUGGUUUAAGGCGCAAGGCUUUAAUUUAUCACUACGAAAUCUUGAGAUCGGGCGUUCGACUCGCCCCGGGGAGAUUUUUUCCUCGAGCAA [C12G A33G C83G]: the nonsense suppression is ≤ 0.026.

As to CUCUCGGUAGCCAAGUUGGUUUAAGGCGAAAGACUUUAAUUUAUCACUACGAAAUCUUGAGAUCGGGCGCUCGGCUCGCCCCCGGGAGAUUUUUUCCUCGAGCAA [C29A U70C A74G], the nonsense suppression is ≤ 0.026.

For CUCUCGGUAGCCAAGUUGGUUUAAGGCGCAAGAUUUUAAUUUAUCACUACGAAAUCUUGAGAUCGGGUGUUCGACUCGCCCCCGGGAGAUUUUUUCCUCGAGCAA [C34U C68U], the nonsense suppression is ≤ 0.026.

Consider CCCUCGGUAGCCAAGUUGGUUUAAGGCGCAAGACUUUAAUUUAUCACUACGAAAUCUUGAGAUCGGGCGUUCGACUCGCCCCCGGGAUAUUUUUUCCUCGAGCAA [U2C G88U], for which the nonsense suppression is ≤ 0.026.

With CUCUUGGUAGCCAAGUUGGUUUAAGGCGCAAGACUUUAAUUUAUCACUACGAAAUCUUGAGAUCGGGCGUUCGACUCGCCCCCGGGAGCUUUUUUCCUCGAGCAA [C5U A89C], the nonsense suppression is ≤ 0.026.

CUCUCGGUAGCCAAGUUGGUUUAAGGCGCAAGACUUUAAUUUAUCACUACGAAAUCUGGAUAUCGGGCGUUCGACUCGCCCCCGGGAGAUUUUUUCCUCGAGCAA [U58G G61U]: the nonsense suppression was ≤ 0.026.

In the case of CUAUCGGUAGCCAAGUUGGUUUAAGGCGCAAGACUUUAAUUUAUCACUACGAAAUCUUGAGAUCGGGCGUUGGACUCGCCGCCGGGAGAUUUUUUCCUCGAGCAA [C3A C72G C81G], the nonsense suppression is ≤ 0.026.

As for CUCUCGGGAGCCAAGUUGGUGUAAGGCGCAAGAGUUUAAUUUAUCACUACGAAAUCUUGAGAUCGGGCGUUCGACUCGCCCCCGGGAGAUUUUUUCCUCGAGCAA [U8G U21G C34G], the nonsense suppression was ≤ 0.026.

CUCUCGGUAGCCAAGUUGGUUGCAGGCGCAAGCCUUUAAUUUAUCACUACGAAAACUUGAAAUCGGGCGUUCGACUCGCCCCCGGGAGAUUUUUUCCUCGAGCAA [U22G A23C A33C U55A G61A]: the nonsense suppression is ≤ 0.026.

Regarding CUCUCGGUAGCCAAGUUGGUUUAAGGCGCAAGACCUUAAUUUAUCACUACGAAAUCUUGAGAUCCGGCGUUCGACUCGCCCCCGGGAGAUUUUUUCCUCGAGCAA [U35C G65C], the nonsense suppression was ≤ 0.026.

On to CUCUCGGUAGCCAAGUGGGUUUAAGGCGCAAGACUUUAAUUUAUCACUACGAAAUCUUGAGAUCGGUCGUUCGACUCGCCCCCGGGAGAUUUUUUCCUCGAGCAA [U17G G67U], for which the nonsense suppression is ≤ 0.026.

In the case of CUCUCGGUAGCCAAGUUGGUUUAAGGCGCAAGACUUUAAUUUAUCACUACGAAAGCUUGAGAUCGGUCGUUCGUCUCGCCCCCGGGAGAUUUUUUCCUCGAGCAA [U55G G67U A74U], the nonsense suppression is ≤ 0.026.

In the case of CUCUCGGUAGCCAAGUUGGUUUAAGACGCAAGACUUUAAUUUAUCACUACGAAAUCUUGAGAUCGGGCGUUCGACUCGCCCCCGGGAGAUUUUUUCCUCGAGCAA [G26A], the nonsense suppression is ≤ 0.026.

For CUCUCGGUAGCCAAGUUGGUUUAAGGCGCAAGACGUUAAUUUAUCACUACGAAAUCUUGAGAUCGGGCGUUCCACUCGCCCCCGGGAGAUUUUUUCCUCGAGCAA [U35G G73C], the nonsense suppression was ≤ 0.026.

Consider CUCGCGGUAGCCUAGUUGGUUUAAGGCGCAAGACUUUAAUUUAUCACUACGAAAUCUUGAGAUCGGGCGUUCGACUCGCCCCCGGGAGAUUUUUUCCUCGAGCAA [U4G A13U], for which the nonsense suppression stood at 0.191.

As for CCCUCGGUAGCCAAGUUGGUUUAAGGCGCAAGACUUUAAUUUAUCACUACGAAAUCUUGAGAUCGGGCGUUCGACUAGCCCCCGGGAGUUUUUUUCCUCGAGCAA [U2C C77A A89U], the nonsense suppression is ≤ 0.026.

Take CUCUCGGUAGCCAAGUUGGUUUAAGGCGCAAGACUUUAAUUUAUCACUACGAAAUCUUGAGAUCUGGCGUUCGACUCGCCCCCGGAAGAUUUUUUCCUCGAGCAA [G65U G86A]: the nonsense suppression is ≤ 0.026.

Take AUCUCGGUAGCCAAGUUGGAUUAAGGCGCAAGAAUUUAAUUUAUCACUACGAAAUCUUAAGAUCGGGCGUUCGACUCGCCCCCGGGAGAUUUUUUCCUCGAGCAA [C1A U20A C34A G59A]: the nonsense suppression was ≤ 0.026.

CUCUCGUUAGCCAAGUUGGUUUACGGCGCAAGACUUUAAUUUAUCACUACGAAAUCUUGAGAUCGGGUGUUCGACUCGCCCCCGGGAGAUUUUUUCCUCGAGCAA [G7U A24C C68U]: the nonsense suppression was ≤ 0.026.

Regarding CACUCGGUAGCCAAGUUGGUUUAAGGCGCAAGACUUUAAUUUAUCACUACGAAAUCUUGAGAUCGGGCGUUCGACUGGCCCCCGGGACAUUUUUUCCUCGAGCAA [U2A C77G G88C], the nonsense suppression is ≤ 0.026.

CUCUCGGUAGCCAAGUUGGGUUAAAGCGCAAGACUUUAAUUUAUCACUACGAAAUCUUGAUAUCGGGCGUUCGACUCGCCCCCGGUAGAUUUUUUCCUCGAGCAA [U20G G25A G61U G86U]: the nonsense suppression was ≤ 0.026.
